PMC9911399, “Two distinct binding modes provide the RNA-binding protein RbFox with extraordinary sequence specificity”
Numbering of substitutions follows the chain as printed; changes in the protein carry UniProt numbers. This is one part of the list.

T1: RBFOX1 RRM RbFoxmut (Fox-RRM*) (Homo sapiens, UniProt Q9NWB1 109-208, R118D;E147R;N151S;E152T)
T1 sequence: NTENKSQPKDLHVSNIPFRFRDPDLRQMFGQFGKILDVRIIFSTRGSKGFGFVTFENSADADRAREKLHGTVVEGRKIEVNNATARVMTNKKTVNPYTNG

B1: ACGUCGC (DNA:RNA)
RNA: GGGAGACCGGAAUUCAGAUUGUCCACGUCGCUUAAAUCCCGUCGUAGCCACCA
DNA 1: CAATCTGAATTCCGGTCTCCC
DNA 2: TGGTGGCTACGACGGGATT
B2: AGAGAGG (DNA:RNA)
RNA: B1 RNA with C26G, G27A, U28G, C29A, C31G
DNA 1: CAATCTGAATTCCGGTCTCCC
DNA 2: TGGTGGCTACGACGGGATT
B3: AUAGCCA (DNA:RNA)
RNA: B1 RNA with C26U, G27A, U28G, G30C, C31A
DNA 1: CAATCTGAATTCCGGTCTCCC
DNA 2: TGGTGGCTACGACGGGATT
B4: ACCGUGA (DNA:RNA)
RNA: B1 RNA with G27C, U28G, C29U, C31A
DNA 1: CAATCTGAATTCCGGTCTCCC
DNA 2: TGGTGGCTACGACGGGATT
B5: UGGUAGU (DNA:RNA)
RNA: B1 RNA with A25U, C26G, C29A, C31U
DNA 1: CAATCTGAATTCCGGTCTCCC
DNA 2: TGGTGGCTACGACGGGATT
B6: GACUAGC (DNA:RNA)
RNA: B1 RNA with A25G, C26A, G27C, C29A
DNA 1: CAATCTGAATTCCGGTCTCCC
DNA 2: TGGTGGCTACGACGGGATT
B7: GAUUUUA (DNA:RNA)
RNA: B1 RNA with A25G, C26A, G27U, C29U, G30U, C31A
DNA 1: CAATCTGAATTCCGGTCTCCC
DNA 2: TGGTGGCTACGACGGGATT
B8: UCAUACC (DNA:RNA)
RNA: B1 RNA with A25U, G27A, C29A, G30C
DNA 1: CAATCTGAATTCCGGTCTCCC
DNA 2: TGGTGGCTACGACGGGATT
B9: GCCGGCG (DNA:RNA)
RNA: B1 RNA with A25G, G27C, U28G, C29G, G30C, C31G
DNA 1: CAATCTGAATTCCGGTCTCCC
DNA 2: TGGTGGCTACGACGGGATT
B10: CGAUCAA (DNA:RNA)
RNA: B1 RNA with A25C, C26G, G27A, G30A, C31A
DNA 1: CAATCTGAATTCCGGTCTCCC
DNA 2: TGGTGGCTACGACGGGATT
B11: CUGCUCC (DNA:RNA)
RNA: B1 RNA with A25C, C26U, U28C, C29U, G30C
DNA 1: CAATCTGAATTCCGGTCTCCC
DNA 2: TGGTGGCTACGACGGGATT
B12: CAUCAUG (DNA:RNA)
RNA: GGGAGACCGGAAUUCAGAUUGUCCCAUCAUGUUAAAUCCCGUCGUAGCCACCA
DNA 1: CAATCTGAATTCCGGTCTCCC
DNA 2: TGGTGGCTACGACGGGATT
B13: AAGAUUA (DNA:RNA)
RNA: B1 RNA with C26A, U28A, C29U, G30U, C31A
DNA 1: CAATCTGAATTCCGGTCTCCC
DNA 2: TGGTGGCTACGACGGGATT
B14: CGGCUCC (DNA:RNA)
RNA: B1 RNA with A25C, C26G, U28C, C29U, G30C
DNA 1: CAATCTGAATTCCGGTCTCCC
DNA 2: TGGTGGCTACGACGGGATT
B15: GAGCAGG (DNA:RNA)
RNA: B12 RNA with C25G, U27G, U30G
DNA 1: CAATCTGAATTCCGGTCTCCC
DNA 2: TGGTGGCTACGACGGGATT
B16: UACAUAA (DNA:RNA)
RNA: B12 RNA with C25U, U27C, C28A, A29U, U30A, G31A
DNA 1: CAATCTGAATTCCGGTCTCCC
DNA 2: TGGTGGCTACGACGGGATT
B17: ACCCAGU (DNA:RNA)
RNA: B1 RNA with G27C, U28C, C29A, C31U
DNA 1: CAATCTGAATTCCGGTCTCCC
DNA 2: TGGTGGCTACGACGGGATT
B18: UUUAGAU (DNA:RNA)
RNA: B12 RNA with C25U, A26U, C28A, A29G, U30A, G31U
DNA 1: CAATCTGAATTCCGGTCTCCC
DNA 2: TGGTGGCTACGACGGGATT
B19: UGUCUAC (DNA:RNA)
RNA: B12 RNA with C25U, A26G, A29U, U30A, G31C
DNA 1: CAATCTGAATTCCGGTCTCCC
DNA 2: TGGTGGCTACGACGGGATT
B20: GCGAGAG (DNA:RNA)
RNA: B1 RNA with A25G, U28A, C29G, G30A, C31G
DNA 1: CAATCTGAATTCCGGTCTCCC
DNA 2: TGGTGGCTACGACGGGATT
B21: CGGACCG (DNA:RNA)
RNA: B1 RNA with A25C, C26G, U28A, G30C, C31G
DNA 1: CAATCTGAATTCCGGTCTCCC
DNA 2: TGGTGGCTACGACGGGATT
B22: CCAAAAC (DNA:RNA)
RNA: B1 RNA with A25C, G27A, U28A, C29A, G30A
DNA 1: CAATCTGAATTCCGGTCTCCC
DNA 2: TGGTGGCTACGACGGGATT
B23: GGUUGGA (DNA:RNA)
RNA: B1 RNA with A25G, C26G, G27U, C29G, C31A
DNA 1: CAATCTGAATTCCGGTCTCCC
DNA 2: TGGTGGCTACGACGGGATT
B24: UCUCUAA (DNA:RNA)
RNA: B12 RNA with C25U, A26C, A29U, U30A, G31A
DNA 1: CAATCTGAATTCCGGTCTCCC
DNA 2: TGGTGGCTACGACGGGATT
B25: UGCUGCA (DNA:RNA)
RNA: B1 RNA with A25U, C26G, G27C, C29G, G30C, C31A
DNA 1: CAATCTGAATTCCGGTCTCCC
DNA 2: TGGTGGCTACGACGGGATT
B26: CCUGCGA (DNA:RNA)
RNA: B1 RNA with A25C, G27U, U28G, C31A
DNA 1: CAATCTGAATTCCGGTCTCCC
DNA 2: TGGTGGCTACGACGGGATT
B27: GCUUGUG (DNA:RNA)
RNA: B12 RNA with C25G, A26C, C28U, A29G
DNA 1: CAATCTGAATTCCGGTCTCCC
DNA 2: TGGTGGCTACGACGGGATT
B28: CCAGACA (DNA:RNA)
RNA: B12 RNA with A26C, U27A, C28G, U30C, G31A
DNA 1: CAATCTGAATTCCGGTCTCCC
DNA 2: TGGTGGCTACGACGGGATT
B29: UAAUUUU (DNA:RNA)
RNA: B12 RNA with C25U, U27A, C28U, A29U, G31U
DNA 1: CAATCTGAATTCCGGTCTCCC
DNA 2: TGGTGGCTACGACGGGATT
B30: GAUGUAA (DNA:RNA)
RNA: B12 RNA with C25G, C28G, A29U, U30A, G31A
DNA 1: CAATCTGAATTCCGGTCTCCC
DNA 2: TGGTGGCTACGACGGGATT
B31: CCCACCU (DNA:RNA)
RNA: B1 RNA with A25C, G27C, U28A, G30C, C31U
DNA 1: CAATCTGAATTCCGGTCTCCC
DNA 2: TGGTGGCTACGACGGGATT

biological target: T1, RBFOX1 RRM RbFoxmut (Fox-RRM*); experiment: EMSA; HiTS-Eq, 1 nM pool, 10 min; buffer printed only for the single-RNA assays: 10 mM Tris pH 7.5, 150 mM NaCl, 3.4 mM EDTA, 0.001% NP-40, 30 C; settings: tags: His6 N-terminal (pET28a); label: 5' 32P
Method in brief: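 A pool of RNA with 7 randomized nucleotides, 5′-radiolabelled and with DNA-annealed flanks, was equilibrated at 1 nM for 10 min in 50 µL with purified RbFox RRM, wild type or mutant, across increasing protein concentrations. Free RNA was separated by 8% native PAGE, excised, reverse-transcribed, barcoded by PCR and sequenced. Relative association constants were obtained from read-count changes of each RNA species versus the control reaction and normalised to the cognate motif.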

Binder	binding signal
B1	0.0954 KA relative to UGCAUGU
B2	0.092 KA relative to UGCAUGU
B3	0.117 KA relative to UGCAUGU
B4	0.0705 KA relative to UGCAUGU
B5	0.163 KA relative to UGCAUGU
B6	0.0831 KA relative to UGCAUGU
B7	0.0965 KA relative to UGCAUGU
B8	0.0704 KA relative to UGCAUGU
B9	0.121 KA relative to UGCAUGU
B10	0.0695 KA relative to UGCAUGU
B11	0.036 KA relative to UGCAUGU
B12	0.124 KA relative to UGCAUGU
B13	0.125 KA relative to UGCAUGU
B14	0.08 KA relative to UGCAUGU
B15	0.0837 KA relative to UGCAUGU
B16	0.0965 KA relative to UGCAUGU

Binder	binding signal
B17	0.0826 KA relative to UGCAUGU
B18	0.0764 KA relative to UGCAUGU
B19	0.0803 KA relative to UGCAUGU
B20	0.116 KA relative to UGCAUGU
B21	0.172 KA relative to UGCAUGU
B22	0.0482 KA relative to UGCAUGU
B23	0.0627 KA relative to UGCAUGU
B24	0.104 KA relative to UGCAUGU
B25	0.251 KA relative to UGCAUGU
B26	0.0932 KA relative to UGCAUGU
B27	0.259 KA relative to UGCAUGU
B28	0.087 KA relative to UGCAUGU
B29	0.0746 KA relative to UGCAUGU
B30	0.0917 KA relative to UGCAUGU
B31	0.0699 KA relative to UGCAUGU
